Assay results from PubChem BioAssay (NCI).
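Protocol summary: plate cells (96-well), add compound at 5 concentrations, incubate 48 h, interpolate endpoints linearly. GI50 is the concentration that inhibits growth by half. TGI marks complete inhibition of growth.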

tested on: NCI-H322M lung; test: growth of human tumour cells (NCI), 48 h

Row | Structure (SMILES) | GI50 | TGI
1 | Nc1cc(-c2c[nH]c3ccc(Br)cc23)nc2cc(-c3c[nH]c4ccc(Br)cc34)nn12 | 1440 nM | 3420 nM
2 | CC(=O)Nc1cccc(Nc2nc(N[C@@H](C)c3ccccc3)c3ccccc3n2)c1 | 756 nM | 13200 nM
3 | O=C(Nc1cccc(Cl)c1)Nc1nc2ccc([N+](=O)[O-])cc2s1 | 565 nM | 3470 nM
4 | CCOc1ccccc1NC1=C(Cl)C(=O)c2nc(C)ccc2C1=O | 2220 nM | 7910 nM
5 | O=C(N/N=C\c1ccc(Cl)cc1)c1ccc2nc(-c3ccc(Br)cc3)[nH]c2c1 | 2320 nM | 6330 nM
